Measurements: the supplement of paper PMC12217912
This is one part of the list. The full chains were built here from the parent and the listed change. Values near 0.05 are background.

B1: TEV protease; numbered along this chain (parent)
chain: MGESLFKGPRDYNPISSSICHLTNESDGHTTSLYGIGFGPFIITNKHLFRRNNGTLVVQSLHGVFKVKDTTTLQQHLVDGRDMIIIRMPKDFPPFPQKLKFREPQREERICLVTTNFQTKSMSSMVSDTSCTFPSGDGIFWKHWIQTKDGQCGSPLVSTRDGFIVGIHSASNFTNTNNYFTSVPKNFMELLTNQEAQQWVSGWRLNADSVLWGGHKVFMVKPEEPFQPVKEATQL

Variants of: B1
Assay: raw area under fraction-flipped curve 0-4 h after induction (AUC4h, not background-subtracted), DNA-recorder readout of cleavage of the substrate (dimensionless); higher = more cleavage of the substrate by the protease variant
Conditions: temperature: 34 °C; time window: 0-4 h after rhamnose induction
Protocol: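 In vivo DNA recorder in E. coli TOP10(DE3) ΔrhaA at 34 °C. Each TEVp single-site mutant (parent TEVp 0) is paired with a single-site variant of the 7-mer TEVs (canonical ENLYFQ|S). The substrate sits between flexible linkers in a Bxb1-sfGFP-TEVs-SsrA fusion, so cleavage stabilises Bxb1 and speeds flipping of a recombination array, read by NGS. The value is the raw area under the fraction-flipped curve over 0-4 h after rhamnose induction (AUC4h), with ≥20 reads per time point. It is not background-subtracted; inactive controls average about 0.047.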
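Also: Bxb1 expression induced with 0.2% (w/v) L-rhamnose at OD600 near 0.5, cultures sampled hourly, flipped fraction per protease–substrate barcode pair counted by paired-end Illumina sequencing.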

Row | Variant | area with substrate ENLYFAS | area with substrate ENLYFDS | area with substrate ENLYFES | area with substrate ENLYFFS | area with substrate ENLYFIS | area with substrate ENLYFKS | area with substrate ENLYFLS | area with substrate ENLYFMS | area with substrate ENLYFNS | area with substrate ENLYFPS | area with substrate ENLYFTS | area with substrate ENLYFWS | area with substrate ENLYFGS | area with substrate ENLYFHS | area with substrate ENLYFRS | area with substrate ENLYFSS | area with substrate ENLYFYS | area with substrate ENLYFCS | area with substrate ENLYFVS
1 | MGESLFKGPRDYNPISSSICHLTNESDGHTTSLYGIGFGPFIITNKHLFRRNNGTLVVQSLHGVFKVKDTTTLQQHLVDGRDMIIIRMPKDFPPFPQKLKFREPQREERICLVTTNFQTKSMSSMVSDTSCTFPSGDGIFWKHWIQTKDGQCGSPLVSTRDGFIVGIHSASNFTNTNNYFTSVPKNFMELLTNQEAQQWVSGWRLNADSVLWGGHKVFMVKPECPFQPVKEATQL [E224C] | 0.0723 | 0.0385 | 0.0627 | 0.0655 | 0.0534 | 0.0604 | 0.0479 | 0.04 | 0.0693 | 0.0604 | 0.0442 | 0.0616 |  |  |  |  |  |  | 
2 | MGESLFKGPRDYNPISSSICHLTNESDGHTTSLYGIGFGPFIITNKHLFRRNNGTLVVQSLHGVFKVKDTTTLQQHLVDGRDMIIIRMPKDFPPFPQKLKFREPQREERICLVTTNFQTKSMSSMVSDTSCTFPSGDGIFWKHWIQTKDGQCGSPLVSTRDGFIVGIHSASNFTNTNNYFTSVPKNFMELLTNQEAQQWVSGWRLNADSVLWGGHKVFMVKPENPFQPVKEATQL [E224N] | 0.0425 | 0.047 | 0.0524 | 0.0783 | 0.0739 | 0.0613 | 0.0651 | 0.066 | 0.0651 | 0.0799 | 0.0692 | 0.0591 | 0.0543 | 0.0582 | 0.058 | 0.06 | 0.0428 |  | 
3 | MGESLFKGPRDYNPISSSICHLTNESDGHTTSLYGIGFGPFIITNKHLFRRNNGTLVVQSLHGVFKVKDTTTLQQHLVDGRDMIIIRMPKDFPPFPQKLKFREPQREERICLVTTNFQTKSMSSMVSDTSCTFPSGDGIFWKHWIQTKDGQCGSPLVSTRDGFIVGIHSASNFTNTNNYFTSVPKNFMELLTNQEAQQWVSGWRLNADSVLWGGHKVFMVKPESPFQPVKEATQL [E224S] | 0.0588 | 0.0615 | 0.0645 | 0.0655 | 0.054 |  | 0.0643 |  | 0.0574 | 0.0544 | 0.0483 | 0.051 |  | 0.0707 | 0.0504 | 0.0779 |  |  | 
4 | MGESLFKGPRDYNPISSSICHLTNESDGHTTSLYGIGFGPFIITNKHLFRRNNGTLVVQSLHGVFKVKDTTTLQQHLVDGRDMIIIRMPKDFPPFPQKLKFREPQREERICLVTTNFQTKSMSSMVSDTSCTFPSGDGIFWKHWIQTKDGQCGSPLVSTRDGFIVGIHSASNFTNTNNYFTSVPKNFMELLTNQEAQQWVSGWRLNADSVLWGGHKVFMVKPEVPFQPVKEATQL [E224V] | 0.0646 | 0.0594 | 0.0591 | 0.0649 | 0.058 | 0.0814 |  | 0.0774 |  | 0.052 |  | 0.0553 | 0.0607 |  | 0.053 |  |  | 0.057 | 0.071
5 | MGESLFKGPRDYNPISSSICHLTNESDGHTTSLYGIGFGPFIITNKHLFRRNNGTLVVQSLHGVFKVKDTTTLQQHLVDGRDMIIIRMPKDFPPFPQKLKFREPQREERICLVTTNFQTKSMSSMVSDTSCTFPSGDGIFWKHWIQTKDGQCGSPLVSTRDGFIVGIHSASNFTNTNNYFTSVPKNFMELLTNQEAQQWVSGWRLNADSVLWGGHKVFMVKPEWPFQPVKEATQL [E224W] | 0.0522 | 0.0544 | 0.0722 | 0.0648 | 0.0588 | 0.0611 | 0.0675 | 0.0616 | 0.0554 | 0.0583 | 0.069 | 0.0614 | 0.0352 | 0.0581 | 0.0541 | 0.0608 | 0.0577 | 0.0374 | 
6 | MGESLFKGPRDYNPISSSICHLTNESDGHTTSLYGIGFGPFIITNKHLFRRNNGTLVVQSLHGVFKVKDTTTLQQHLVDGRDMIIIRMPKDFPPFPQKLKFREPQREERICLVTTNFQTKSMSSMVSDTSCTFPSGDGIFWKHWIQTKDGQCGSPLVSTRDGFIVGIHSASNFTNTNNYFTSVPKNFMELLTNQEAQQWVSGWRLNADSVLWGGHKVFMVKPEEPCQPVKEATQL [F226C] | 0.0553 | 0.0526 | 0.0745 |  | 0.0559 | 0.0474 |  | 0.073 |  | 0.0559 | 0.0513 | 0.0478 | 0.059 |  | 0.0613 |  | 0.0632 | 0.0713 | 0.0488
7 | MGESLFKGPRDYNPISSSICHLTNESDGHTTSLYGIGFGPFIITNKHLFRRNNGTLVVQSLHGVFKVKDTTTLQQHLVDGRDMIIIRMPKDFPPFPQKLKFREPQREERICLVTTNFQTKSMSSMVSDTSCTFPSGDGIFWKHWIQTKDGQCGSPLVSTRDGFIVGIHSASNFTNTNNYFTSVPKNFMELLTNQEAQQWVSGWRLNADSVLWGGHKVFMVKPEEPFQPVKEKTQL [A232K] | 0.0546 |  | 0.0711 | 0.0731 | 0.0626 | 0.0712 |  |  | 0.0505 | 0.0526 |  | 0.0668 |  | 0.0791 |  | 0.0404 | 0.0104 | 0.05 | 0.06
8 | MGESLFKGPRDYNPISSSICHLTNESDGHTTSLYGIGFGPFIITNKHLFRRNNGTLVVQSLHGVFKVKDTTTLQQHLVDGRDMIIIRMPKDFPPFPQKLKFREPQREERICLVTTNFQTKSMSSMVSDTSCTFPSGDGIFWKHWIQTKDGQCGSPLVSTRDGFIVGIHSASNFTNTNNYFTSVPKNFMELLTNQEAQQWVSGWRLNADSVLWGGHKVFMVKPEEPFQPVKEVTQL [A232V] | 0.0607 |  | 0.0767 |  | 0.0503 | 0.061 |  | 0.0765 | 0.0697 | 0.0555 |  | 0.0631 |  |  |  |  |  | 0.0736 | 0.0575
9 | MGESLFKGPRDYNPISSSICHLTNESDGHTTSLYGIGFGPFIITNKHLFRRNNGTLVVQSLHGVFKVKDTTTLQQHLVDGRDMIIIRMPKDFPPFPQKLKFREPQREERICLVTTNFQTKSMSSMVSDTSCTFPSGDGIFWKHWIQTKDGQCGSPLVSTRDGFIVGIHSASNFTNTNNYFTSVPKNFMELLTNQEAQQWVSGWRLNADSVLWGGHKVFMVKPEEPFQPVKEWTQL [A232W] | 0.047 | 0.0638 |  |  | 0.0491 |  |  | 0.066 | 0.0576 |  | 0.0589 | 0.0601 |  | 0.0446 | 0.0423 |  |  | 0.0849 | 
